Values marked as one replicate rest on one cluster of the flow cell; about a third of the high ones do not repeat.
Tested on: ATP
Experiment: switch fluorescence ratio, 500 uM ATP over buffer (Cy3 cluster intensity, sum of 5 cycles each) (fold (ratio)); higher = stronger signal-on switching upon ATP binding; sequences stand for … in TCGTCGGCAGCGTCAGATGTGTATAAGAGACAGTTTTTTTTTTTTTTTTTTTTTTTTT…TC
Details: aptamer strand: ATP DNA aptamer (quencher-CACCTGGGGGAGTATTGCGGAGGAAGG + anchor), 100 nM annealed; ATP concentration: 500 uM; one replicate
In short: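 Imaging in selection buffer was followed by imaging after 15 min with 500 uM ATP at 22 °C, for Cy3-labelled switching-strand clusters annealed to 100 nM quencher-labelled ATP aptamer on a modified Illumina MiSeq flow-cell. Five of these buffer/ATP cycles ran, separated by NaOH stripping and re-annealing. The fluorescence ratio per cluster is summed target-cycle over summed buffer-cycle Cy3 intensity, averaged per switch-domain sequence; clusters outside 100-1000 RFU were removed.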
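Further: ATP exposure 15 min at 22 °C before imaging.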

| Sequence | switch fluorescence ratio |
| --- | --- |
| TCTGCTAACG | 1.06 |
| GTTAAAATAG | 1.05 |
| TGATGGGAGA | 0.979 |
| TTCGTGCATT | 1.04 |
| CAGTAGGTTA | 0.997 |
| TCGCACCTTG | 1.04 |
| GGGTTTGATA | 1.01 |
| TGGAAGGGAA | 0.968 |
| ATATCATCTG | 1.02 |
| CGTTAGGTTT | 0.997 |
| GCTGCAATCT | 1.57 |
| GTCATGAGTG | 0.967 |
| ATCAGTTGCC | 0.977 |
| TTATCTCCTG | 1 |
| TTCGGGTCTT | 0.972 |
| ATGTAACTT | 1.02 |
| GTGTCATCTG | 0.957 |
| TCAGTGTAA | 1.05 |
| AGATGGAGGG | 0.968 |
| GCGGGGTCA | 1.03 |
| CGATAAGATA | 1.02 |
| CTCATTCGGG | 0.968 |
| CGTGCTCTGC | 1.03 |

| Sequence | switch fluorescence ratio |
| --- | --- |
| TATACCAATG | 0.991 |
| TTCCTCTTTT | 1.03 |
| AAGAGCTCTG | 1.05 |
| TCTGTGTTTG | 0.959 |
| ACAATCTGAA | 1.03 |
| CTGTGACAGT | 0.976 |
| GGCACAGGTC | 1.08 |
| ACCCGTAGAG | 1.06 |
| TAATATGAAC | 1.04 |
| GAGGGCGGGT | 1.03 |
| AACATCATCC | 1.09 |
| TGGTCGAGGG | 1.01 |
| GCGAGAGTAA | 1.06 |
| ATCCTCGAGA | 1.03 |
| GTTTGGCCTC | 0.996 |
| ACGGGTGCAG | 1.04 |
| CAGATTTATT | 0.943 |
| TACTGTGCAG | 1.01 |
| TGCTGAAAC | 0.991 |
| AGAATTGGTC | 1.05 |
| GTAGTCATAT | 1.08 |
| AGCGTCCCGG | 1.03 |
| TTCCGGCTGG | 2.05 |

| Sequence | switch fluorescence ratio |
| --- | --- |
| GATGTACTGG | 1.03 |
| GACTAGGGAT | 1 |
| TCCGAAGTTG | 2.35 |
| CCTTGGACGC | 1.82 |
| CGAGTTTATG | 1.04 |
| GCTAATCACT | 0.996 |
| ATCATCCAAA | 1 |
| ACTGGGAGTC | 0.998 |
| TCGAAATTGA | 1 |
| ACGGCATGTT | 1.05 |
| TACGAGCGAG | 1.04 |
| TTTGGATAAG | 0.965 |
| AACGAACGAT | 1.34 |
| TAGGCTGTGG | 1 |
| GTTCATATGA | 1.02 |
| GAAACACACG | 1.34 |
| ATTGTGACAC | 0.958 |
| AAGTAGCAGG | 0.993 |
| GTGTGGGCTA | 1.06 |
| GAACGGGTG | 1.11 |
| TTGGATATTA | 0.998 |
| CATAAAGGTC | 1.02 |
| TTCGTACACG | 0.99 |

| Sequence | switch fluorescence ratio |
| --- | --- |
| GGGTCTGGAA | 1.02 |
| GCATAGGGGA | 1.07 |
| TACCAAAATA | 1.05 |
| TTGAAGTCAG | 0.978 |
| ACTTAATAGA | 1.01 |
| ATTTTTGCTG | 1.06 |
| GGGTGCTTTT | 0.982 |
| GCAACGCCTG | 0.969 |
| CGCGAAATGC | 1.32 |
| ACTTTATAGG | 1.02 |
| AGCATTGTTA | 0.953 |
| GGAGGGGCTA | 0.995 |
| ATGAATCAAG | 0.998 |
| TAGATGTC | 1.02 |
| TTGCGGA | 0.972 |
| GTAATAACAT | 1.02 |
| AGTAGGTGAG | 0.996 |
| ATTGCTTGGC | 0.909 |
| GATCATACAT | 1.01 |
| ACGAACGTTA | 1.3 |
| CGATTAGTGG | 0.974 |
| AAAGGGCCCC | 0.948 |
| ATTAATATTT | 1.01 |

| Sequence | switch fluorescence ratio |
| --- | --- |
| ACAGGGCGCC | 0.987 |
| TACATCAG | 0.995 |
| TTGTCTTATT | 1.04 |
| GATGGTTAAA | 0.99 |
| TAAGAGTTGC | 0.949 |
| ATAACACCTT | 1.24 |
| TAGAGGGATT | 1 |
| TAATTTTAT | 0.946 |
| TGGCGACATT | 0.97 |
| AGCTAGGCGA | 1.07 |
| TATAAATCGG | 0.941 |
| GTACGTTGTC | 1.03 |
| ATTTCCCGTC | 0.98 |
| GAGCGGGTGA | 1.05 |
| AAGCTATCT | 1.01 |
| AGATCGTAAA | 1.01 |
| CATTTAGTCA | 1.03 |
| ATTGACCCAG | 1.03 |
| TTTGACCAAG | 1.03 |
| AATATGAATG | 0.995 |
| GTGATCCGAG | 1.04 |
| TGGCTGTCCG | 0.957 |
| GCAGGAGTGT | 0.951 |

| Sequence | switch fluorescence ratio |
| --- | --- |
| TACGTCGAGC | 1.01 |
| AACTTAGGGC | 1.07 |
| AATACATAA | 1.06 |
| GTCCTAACGT | 0.969 |
| AAAAGGATAC | 1.11 |
| TACAACGGAG | 1.04 |
| TGACCCCTT | 1 |
| CCTGTAAGAA | 1.05 |
| AGTGTATGGA | 0.998 |
| GCTAGTTGTT | 0.977 |
| GACTAAGTGG | 1.02 |
| TTACCAGTTT | 1.1 |
| AAGTTGGTT | 0.973 |
| ACTGCAACCG | 1.25 |
| GTGGGAATGA | 0.983 |
| GGACTTACAG | 1.04 |
| GACAAAGACC | 1.01 |
| TTGATAGTGG | 0.957 |
| CCAGGGGTG | 1.2 |
| AGAACTTGAG | 1.01 |
| CAATTCAGG | 1.01 |
| TCACTCGGAA | 1.08 |
| GTTCATGTCT | 0.996 |

| Sequence | switch fluorescence ratio |
| --- | --- |
| CAAATCGAAT | 0.99 |
| GCATTGCTCG | 1.04 |
| AGAGGCGCTG | 0.992 |
| AGTTACCTTC | 1.4 |
| ATGTCATAAG | 1 |
| ATTACTGCTG | 1.04 |
| TTTTATCACG | 0.97 |
| AGGGTAATT | 1.02 |
| TCCCGAACAT | 1.05 |
| GGGGTTGTT | 0.992 |
| CACGATGGGT | 0.978 |
| AGGTTAGTT | 1.01 |
| ACTAAGGCTT | 1.1 |
| CAAGAGACAG | 0.998 |
| CGTGCGATGG | 1.19 |
| GTGGTGCGAG | 1.01 |
| AATCAACCTG | 1.08 |
| CAGTGTAATC | 1.06 |
| AAACAGGCAT | 0.998 |
| GACTGGAAAA | 1.01 |

Reference: the supplement of paper PMC10126150
